{
  "source": "PubChem BioAssay (Tox21)",
  "key": {"[1]": {"assay": "A CellTox Green Cytotoxicity Assay to monitor cytotoxicity in HepG2 cells - 40 hour (AID 1224879); also: nearly all actives have a fitted effect of over 40% in size", "procedure,_shortened": "(§1)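 First, HepG2 cells (600/well) mixed with reagent were plated; second, after 5 h at 37 C they received compounds via pintool; third, fluorescence was measured at 0 h through 40 h at 8 h intervals.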"}, "[2]": {"assay": "A CellTox Green Cytotoxicity Assay to monitor cytotoxicity in HepG2 cells - 32 hour (AID 1224883)", "procedure,_shortened": "as §1"}, "[3]": {"assay": "qHTS RealTime-Glo MT Cell Viability Assay in HepG2 cells - 16 hour (AID 1224885)", "procedure,_shortened": "(§2)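 Real-time, nonlytic viability: 600 HepG2 cells/well mixed with NanoLuc enzyme plus prosubstrate; 5 h settle, compound (DMSO) added by pintool; luminescence monitored over 40 h at 37 C.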"}, "[4]": {"assay": "qHTS RealTime-Glo MT Cell Viability Assay in HEK293 cells - 24 hour (AID 1224886)", "procedure,_shortened": "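Cells + reagent dispensed (600 cells/well, HEK293) → 5 h at 37 C/5% CO2 → 23 nL compound in DMSO pinned → 40 h at 37 C → luminescence read at 0, 8, 16, 24, 32, 40 h.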"}, "[5]": {"assay": "qHTS RealTime-Glo MT Cell Viability Assay in HEK293 cells - 8 hour (AID 1224887)", "procedure,_shortened": "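600 HEK293 cells per well, dispensed already mixed with RealTime-Glo MT reagents. Compound dosing came 5 h later. The same wells were read for luminescence at 0, 8, 16, 24, 32 and 40 h of exposure at 37 C.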"}, "[6]": {"assay": "qHTS assay to identify small molecule antagonists of the estrogen receptor alpha (ER-alpha) signaling pathway using the BG1 cell line in the presence of 0.1 nM 17-beta-estradiol - cell viability counter screen (AID 1259241)", "procedure,_shortened": "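Cytotoxicity counter-screen: live-cell protease activity measured by fluorescence (30 min reagent step) in the same wells. Cells were VM7Luc4E2 with endogenous ER-alpha and ERE-driven luciferase, treated 22 hr at 37C alongside 0.1 nM 17beta-estradiol final.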"}, "[7]": {"assay": "qHTS assay to identify small molecule antagonists of the androgen receptor (AR) signaling pathway using the MDA cell line in the presence of 0.5 nM R1881 - cell viability counter screen (AID 1259242)", "procedure,_shortened": "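qHTS format. MDA-kb2 (MMTV-luc, AR/GR responsive) + cpd + 0.5 nM R1881 final, 16 hr 37C/0% CO2 → CellTiter-Fluor 30 min → fluorescence intensity.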"}, "[8]": {"target": "Estrogen receptor (Homo sapiens) (UniProt P03372)", "sequence (P03372 whole entry, looked up)": "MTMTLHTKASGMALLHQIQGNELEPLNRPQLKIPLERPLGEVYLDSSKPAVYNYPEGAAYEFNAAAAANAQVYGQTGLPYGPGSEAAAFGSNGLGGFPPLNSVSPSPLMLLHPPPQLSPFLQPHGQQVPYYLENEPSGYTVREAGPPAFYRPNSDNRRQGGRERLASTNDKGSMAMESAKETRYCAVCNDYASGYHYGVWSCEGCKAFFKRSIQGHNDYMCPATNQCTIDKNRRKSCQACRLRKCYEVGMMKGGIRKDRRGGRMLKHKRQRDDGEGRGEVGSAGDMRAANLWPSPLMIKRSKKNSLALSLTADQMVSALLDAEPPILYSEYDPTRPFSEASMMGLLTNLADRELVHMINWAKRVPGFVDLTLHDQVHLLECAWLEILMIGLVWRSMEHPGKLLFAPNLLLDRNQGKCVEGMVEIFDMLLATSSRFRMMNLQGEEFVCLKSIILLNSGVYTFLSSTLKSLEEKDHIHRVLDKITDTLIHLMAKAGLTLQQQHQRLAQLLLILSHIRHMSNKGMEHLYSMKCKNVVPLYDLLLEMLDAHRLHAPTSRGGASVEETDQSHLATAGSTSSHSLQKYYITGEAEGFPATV", "assay": "qHTS assay to identify small molecule antagonists of the estrogen receptor alpha (ER-alpha) signaling pathway using the BG1 cell line in the presence of 0.1 nM 17-beta-estradiol (AID 1259244)", "procedure,_shortened": "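Reporter is a stably transfected luciferase under four estrogen responsive elements in VM7Luc4E2 cells expressing native full-length ER-alpha; inhibition of 0.1 nM (final) 17beta-estradiol-driven signal over 22 h is read by luminescence.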"}, "[9]": {"assay": "A CellTox Green Cytotoxicity Assay to monitor cytotoxicity in HEK293 cells - 16 hour (AID 1224888)", "procedure,_shortened": "(§3)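 Dead-cell fluorescence measured kinetically: asymmetric cyanine dye, HEK293, 600 cells/well, 5 h settle, 23 nL cpd/DMSO, 37 C, reads 0–40 h every 8 h.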"}, "[10]": {"assay": "A CellTox Green Cytotoxicity Assay to monitor cytotoxicity in HEK293 cells - 32 hour (AID 1224881)", "procedure,_shortened": "as §3"}, "[11]": {"assay": "qHTS RealTime-Glo MT Cell Viability Assay in HepG2 cells - 0 hour (AID 1224889)", "procedure,_shortened": "as §2"}, "[12]": {"assay": "A CellTox Green Cytotoxicity Assay to monitor cytotoxicity in HEK293 cells - 8 hour (AID 1224884)", "procedure,_shortened": "as §3"}, "[13]": {"assay": "qHTS assay to identify small molecule phospholipidosis (PLD) inducers (AID 1259344; active = well fitted curve in the direction sought with a large enough effect; inconclusive = small, poorly fitted or top-dose-only effect, or another doubt; inactive = no such curve, though single readings can be large; an effect the other way counts as inactive or inconclusive)", "procedure,_shortened": "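Accumulated phospholipid, stained red by LipidTOX during 24 h compound treatment of HepG2 cells at 37 C, is quantified from images as pit number and intensity, normalised per cell using Hoechst-stained nuclei.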"}},
  "note": "This list was built around the results that the source calls inconclusive (neither active nor inactive); the mix of calls is not that of the screen. For part of these data: No potency is given beside an inconclusive call; the fits are too rough. The source holds several records for some structures; these can differ, active in one and inactive in another. Calls of active or inactive are those of the source. Unless noted, calls follow the shape of the dose curve; as a rule, active = well fitted curve in the direction sought with a large enough effect in the repeat runs; inconclusive = weak or mixed curves; inactive = no such curve, though single readings can be large; an effect the other way counts as inactive or inconclusive. Potency is read from the fitted curve at half-maximal effect; tags tell the direction and shape of the fitted curve.",
  "data": [
    {"smiles": "Nc1ccc(N=Nc2ccccc2)cc1", "values": [
      {"measurement": "Potency", "setting": "[1]", "result": "inconclusive [activator, full curve, poor fit]"},
      {"measurement": "Potency", "setting": "[2]", "result": "inconclusive [activator, partial curve, poor fit]"},
      {"measurement": "Potency", "setting": "[3]", "result": "inconclusive [cytotoxic, partial curve, poor fit]"},
      {"measurement": "Potency", "setting": "[4]", "result": "inconclusive [cytotoxic, partial curve]"},
      {"measurement": "Potency", "setting": "[5]", "result": "inconclusive [cytotoxic, full curve]"},
      {"measurement": "Potency", "setting": "[6]", "result": "inconclusive [cytotoxic, full curve]"},
      {"measurement": "Potency", "setting": "[7]", "result": "inconclusive [cytotoxic, partial curve]"}
    ]},
    {"smiles": "CCCCN(CCCCO)N=O", "values": [
      {"measurement": "Potency", "setting": "[1]", "result": "inactive"},
      {"measurement": "Potency", "setting": "[3]", "result": "inactive"},
      {"measurement": "Potency", "setting": "[6]", "result": "inconclusive [cytotoxic, single point]"},
      {"measurement": "Potency", "setting": "[8]", "result": "inconclusive [inhibitor, single point]"}
    ]},
    {"smiles": "CCC(C)(CC)c1cc(NC(=O)c2c(OC)cccc2OC)on1", "values": [
      {"measurement": "Potency", "setting": "[1]", "result": "inconclusive [activator, partial curve, poor fit]"},
      {"measurement": "Potency", "setting": "[4]", "result": "inconclusive [cytotoxic, partial curve, poor fit]"},
      {"measurement": "Potency", "setting": "[9]", "result": "inconclusive [activator, single point]"}
    ]},
    {"smiles": "C[C@H]1CCC[C@H](O)CCCCCc2cc(O)cc(O)c2C(=O)O1", "values": [
      {"measurement": "Potency", "setting": "[1]", "result": "inconclusive [activator, partial curve, poor fit]"},
      {"measurement": "Potency", "setting": "[2]", "result": "inconclusive [activator, partial curve, poor fit]"},
      {"measurement": "Potency", "setting": "[5]", "result": "active: 27.7 µM"},
      {"measurement": "Potency", "setting": "[6]", "result": "inactive"},
      {"measurement": "Potency", "setting": "[8]", "result": "inconclusive [inhibitor, partial curve, poor fit]"}
    ]},
    {"smiles": "C[C@]12CC[C@H]3[C@@H](CCC4=CC(=O)CC[C@@]43C)[C@@H]1CC[C@@H]2O", "values": [
      {"measurement": "Potency", "setting": "[1]", "result": "inconclusive [activator, single point]"},
      {"measurement": "Potency", "setting": "[10]", "result": "inconclusive [activator, single point]"},
      {"measurement": "Potency", "setting": "[11]", "result": "active: 21.7 µM"}
    ]},
    {"smiles": "O=C(CCl)Nc1ccccc1", "values": [
      {"measurement": "Potency", "setting": "[1]", "result": "inconclusive [activator, partial curve, poor fit]"},
      {"measurement": "Potency", "setting": "[10]", "result": "inconclusive [activator, partial curve, poor fit]"},
      {"measurement": "Potency", "setting": "[6]", "result": "active: 61.1 µM"},
      {"measurement": "Potency", "setting": "[7]", "result": "active: 61.1 µM"}
    ]},
    {"smiles": "CCOP(=O)(O)OCC", "note": "(tested in a mixture with another compound)", "values": [
      {"measurement": "Potency", "setting": "[1]", "result": "active: 34.4 µM"},
      {"measurement": "Potency", "setting": "[12]", "result": "active: 54.5 µM"}
    ]},
    {"smiles": "O=[N+]([O-])c1cc(Cl)c(Cl)c(Cl)c1", "values": [
      {"measurement": "Potency", "setting": "[1]", "result": "inactive"},
      {"measurement": "Potency", "setting": "[10]", "result": "active: 21.7 µM"},
      {"measurement": "Potency", "setting": "[9]", "result": "active: 21.7 µM"},
      {"measurement": "Potency", "setting": "[7]", "result": "inconclusive [cytotoxic, single point]"}
    ]},
    {"smiles": "N#CCC#N", "values": [
      {"measurement": "Potency", "setting": "[1]", "result": "inconclusive [activator, single point]"},
      {"measurement": "Potency", "setting": "[4]", "result": "inconclusive [rising, full curve]"}
    ]},
    {"smiles": "CC(Oc1ccc(Oc2ncc(C(F)(F)F)cc2Cl)cc1)C(=O)O", "note": "(centres undefined)", "values": [
      {"measurement": "Potency", "setting": "[1]", "result": "inconclusive [activator, single point]"},
      {"measurement": "Potency", "setting": "[2]", "result": "inactive"}
    ]},
    {"smiles": "[Cl][Sb]([Cl])[Cl]", "values": [
      {"measurement": "Potency", "setting": "[1]", "result": "inconclusive [activator, single point]"},
      {"measurement": "Potency", "setting": "[2]", "result": "inconclusive [activator, single point]"},
      {"measurement": "Potency", "setting": "[4]", "result": "inconclusive [rising, full curve]"},
      {"measurement": "Potency", "setting": "[7]", "result": "inconclusive [cytotoxic, full curve]"}
    ]},
    {"smiles": "C[N+](C)(C)CC(=O)O", "values": [
      {"measurement": "Potency", "setting": "[1]", "result": "inconclusive [activator, partial curve, poor fit]"},
      {"measurement": "Potency", "setting": "[2]", "result": "inconclusive [activator, partial curve, poor fit]"},
      {"measurement": "Potency", "setting": "[4]", "result": "inactive"}
    ]},
    {"smiles": "O=C=Nc1ccc(Cl)cc1", "values": [
      {"measurement": "Potency", "setting": "[1]", "result": "inconclusive [activator, partial curve]"},
      {"measurement": "Potency", "setting": "[2]", "result": "inactive"}
    ]},
    {"smiles": "CC1COC2(c3ccccc3Cl)c3cc(Cl)ccc3NC(=O)CN12", "note": "(centres undefined)", "values": [
      {"measurement": "Potency", "setting": "[1]", "result": "inconclusive [activator, single point]"},
      {"measurement": "Potency", "setting": "[2]", "result": "inconclusive [activator, single point]"},
      {"measurement": "Potency", "setting": "[4]", "result": "inconclusive [cytotoxic, single point]"}
    ]},
    {"smiles": "CCC[N+]1(C)CCCCC1", "values": [
      {"measurement": "Potency", "setting": "[1]", "result": "inactive"},
      {"measurement": "Potency", "setting": "[4]", "result": "inconclusive [cytotoxic, single point]"},
      {"measurement": "Potency", "setting": "[5]", "result": "inconclusive [cytotoxic, single point]"}
    ]},
    {"smiles": "CC(CC(C#N)(c1ccccc1)c1ccccc1)N(C)C", "note": "(centres undefined)", "values": [
      {"measurement": "Potency", "setting": "[1]", "result": "inconclusive [activator, single point]"},
      {"measurement": "Potency", "setting": "[2]", "result": "inconclusive [activator, single point]"},
      {"measurement": "Potency", "setting": "[13]", "result": "inconclusive [activator, single point]"}
    ]}
  ]
}
